Source: PubChem BioAssay (NCATS)
Several values for one entry are separate records, joined by “and”; a condition that tells them apart may be missing. Equal values may be shown once. For part of these data: “Side channel” marks fits to a control or component signal instead of the main read-out. Where a structure was tested more than once in an assay, its records may differ in their call. Activity calls are given as the source filed them. Unless noted, the call rests on the fitted dose curve; in most records, active means well fitted curve in the direction sought with a large enough effect; inconclusive means small, poorly fitted or top-dose-only effect, or another doubt; inactive means no such curve, though single readings can be large; an effect the other way counts as inactive or inconclusive.

Legend:
[1] = target: Ubiquitin carboxyl-terminal hydrolase 1 (Homo sapiens) (UniProt O94782); assay: Inhibitors of USP1/UAF1: Pilot qHTS (AID 504865);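 further: rhodamine fluorescence freed from ubiquitin-rhodamine substrate followed over time; potency means the concentration at half of the fitted maximal effect; nearly all actives have a fitted effect of over 35% in size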
Summary of the method: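 Enzyme-free wells gave the negative control, while test wells held 1nM USP1/UAF1 preincubated with compound for 15 min at room temperature. Ub-Rho at 150nM final started the reaction, and fluorescence at 480/540 nm was recorded kinetically.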

[2] = target: Estrogen receptor (Homo sapiens) (UniProt P03372); assay: qHTS assay for small molecule agonists of estrogen receptor alpha signaling (AID 588514; calls by dose curve; further: nearly all actives have a fitted effect of over 70% in size; further: potency means the concentration at half of the fitted maximal effect;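 on activation: 0% = vehicle only and 100% = reference agonist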); settings: ER-alpha-UAS-bla HEK293, beta-lactamase ratio, 18 h; activation: at 76.8 µM (top of the series), percent of full estradiol response, vehicle zero unless noted
Summary of the method: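 Reporter-gene assay. […] controls beta-lactamase in HEK 293 GripTite cells; after 18 hrs with compound, CCF4 substrate is added for 2 hrs and fluorescence is read.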

[3] = target: Peroxisome proliferator-activated receptor delta (Homo sapiens) (UniProt Q03181); assay: qHTS assay for small molecule antagonists of peroxisome proliferator-activated receptor delta signaling (AID 588535; active means well fitted inhibition curve with a large enough effect in the signal ratio, with a control signal flat, not every such curve was filed as active; inconclusive means small, poorly fitted or top-dose-only effect, or effect the other way, or a change in a side signal; inactive means no such curve, though single readings can be large or run the other way; the % refers to the signal ratio); settings: HEK293T PPARd-UAS-bla, beta-lactamase FRET ratio, 18 h; activity change, negative = inhibition: at 76.7 µM (top of the series) unless noted
Summary of the method: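 GeneBLAzer PPAR-delta-UAS-bla HEK293T cells in medium with 2% charcoal/dextran FBS were preincubated 5 hrs at 37 C, then given compounds, incubated 18 hrs at 37 C, and read by CCF4 beta-lactamase fluorescence; IC50 from Hill fits.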

[4] = target: Peroxisome proliferator-activated receptor gamma (Homo sapiens) (UniProt P37231); assay: qHTS assay for small molecule agonists of peroxisome proliferator-activated receptor gamma signaling (AID 588536; active means well fitted curve in the direction sought with a large enough effect in the signal ratio, with a control signal flat, not every such curve was filed as active; inconclusive means small, poorly fitted or top-dose-only effect, or effect the other way, or a change in a side signal; inactive means no such curve, though single readings can be large or run the other way; the % refers to the signal ratio; further: potency means the concentration at half of the fitted maximal effect;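 on activation: 0% = DMSO basal wells and 100% = rosiglitazone at 2 µM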); settings: HEK293 PPARg-UAS-bla, beta-lactamase ratio, 16 h, percent of rosiglitazone response, DMSO as zero
Summary of the method: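 HEK293 UAS-bla reporter line, 1% charcoal/dextran FBS; titration, 16 h, 37 C; CCF4 loading 2 h RT; fluorescence 460/530 nm. Normalized to rosiglitazone 2 uM = 100%, DMSO = 0%.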

[5] = target: Peroxisome proliferator-activated receptor gamma (Homo sapiens) (UniProt P37231); assay: qHTS assay for small molecule antagonists of peroxisome proliferator-activated receptor gamma signaling (AID 588537; active means well fitted inhibition curve with a large enough effect in the signal ratio, with a control signal flat, not every such curve was filed as active; inconclusive means small, poorly fitted or top-dose-only effect, or effect the other way, or a change in a side signal; the % refers to the signal ratio; further: potency means the concentration at half of the fitted maximal effect;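 further: reporter cells co-stimulated with 50 nM rosiglitazone agonist during compound treatment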; on activity, negative = inhibition: % of control where 0% means no effect); settings: HEK293 PPARg-UAS-bla, beta-lactamase ratio, antagonist mode; activity, negative = inhibition: at 76.8 µM (top of the series)
Summary of the method: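 PPAR-gamma-UAS-bla HEK293 cells (3000/well, 1% charcoal/dextran-stripped FBS) were preincubated 6-6.5 h at 37 C, given titrated compounds, then stimulated with 50 nM rosiglitazone for 16 h. Beta-lactamase activity was read with CCF4 dye; IC50 came from Hill fits.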

[6] = target: Estrogen receptor (Homo sapiens) (UniProt P03372); assay: qHTS assay for small molecule antagonists of estrogen receptor alpha signaling (AID 588513; active means well fitted curve in the direction sought with a large enough effect in the signal ratio, with a control signal flat, not every such curve was filed as active; inconclusive means small, poorly fitted or top-dose-only effect, or effect the other way, or a change in a side signal; inactive means no such curve, though single readings can be large or run the other way; the % refers to the signal ratio; further: potency means the concentration at half of the fitted maximal effect; on activity, negative = inhibition: on the % scale 0 is the no-effect control and ±100 the full control effect); settings: ER-alpha-UAS-bla HEK293, beta-lactamase ratio, antagonist mode; activity, negative = inhibition: at 76.9 µM (top of the series) unless noted
Summary of the method: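 Antagonist-mode qHTS in ER-alpha-UAS-bla HEK 293 cells: compound titration, 0.5nM estradiol for 18 h, CCF4 fluorescence, Hill-derived IC50.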

[7] = qHTS for Inhibitors of ATXN expression: Validation of Cytotoxic Assay (AID 588349);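 further: cells exposed to compound for 72 hr; on the % scale 0 is the no-effect control and ±100 the full control effect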
Summary of the method: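 HEK293, compound dose series, 72 hr / 37 degrees C; viability via CellTiter Glo (intracellular ATP).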

[8] = qHTS for Inhibitors of ATXN expression: Validation (AID 588378); further: on the % scale 0 is the no-effect control and ±100 the full control effect; nearly all actives have a fitted effect of over 75% in size
Summary of the method: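 After a 2 h attachment and 24 h compound incubation, HEK293-ATXN2-FFLuc wells are read for fluorescence at 405 nm excitation/525 nm emission as a viability measure, then for Bright-Glo luminescence reflecting ATXN2 expression.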

[9] = target: Glucocorticoid receptor (Homo sapiens) (UniProt P04150); assay: qHTS assay for small molecule agonists of glucocorticoid receptor signaling (AID 588532; active means well fitted curve in the direction sought with a large enough effect in the signal ratio, with a control signal flat; inconclusive means small, poorly fitted or top-dose-only effect, or a change in a side signal; inactive means no such curve, though single readings can be large or run the other way; the % refers to the signal ratio; further: potency means the concentration at half of the fitted maximal effect); settings: HeLa MMTV-bla, beta-lactamase ratio, agonist, 18 h; activation: hits give high values, percent of dexamethasone control, DMSO zero
Summary of the method: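 Stimulation of a glucocorticoid response element-driven beta-lactamase gene was measured in HeLa cells. Responses were scaled between DMSO basal and 0.1 uM dexamethasone, then fitted for half-maximal stimulation.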

[10] = target: Glucocorticoid receptor (Homo sapiens) (UniProt P04150); assay: qHTS assay for small molecule antagonists of glucocorticoid receptor signaling (AID 588533; active means well fitted inhibition curve with a large enough effect in the signal ratio, with a control signal flat, not every such curve was filed as active; inconclusive means small, poorly fitted or top-dose-only effect, or effect the other way, or a change in a side signal; the % refers to the signal ratio;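 further: cells stimulated with 2 nM dexamethasone as agonist; potency means the concentration at half of the fitted maximal effect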); settings: HeLa MMTV-bla, GRE beta-lactamase ratio, antagonist mode, 18 h; activity change, negative = inhibition: at 76.8 µM (top of the series)
[11] = activation: at 76.7 µM (top of the series)
Tags describe the fitted curve by direction and shape or compound fluorescence and quenching.

UniProt P03372, sequence (P03372 whole entry, looked up): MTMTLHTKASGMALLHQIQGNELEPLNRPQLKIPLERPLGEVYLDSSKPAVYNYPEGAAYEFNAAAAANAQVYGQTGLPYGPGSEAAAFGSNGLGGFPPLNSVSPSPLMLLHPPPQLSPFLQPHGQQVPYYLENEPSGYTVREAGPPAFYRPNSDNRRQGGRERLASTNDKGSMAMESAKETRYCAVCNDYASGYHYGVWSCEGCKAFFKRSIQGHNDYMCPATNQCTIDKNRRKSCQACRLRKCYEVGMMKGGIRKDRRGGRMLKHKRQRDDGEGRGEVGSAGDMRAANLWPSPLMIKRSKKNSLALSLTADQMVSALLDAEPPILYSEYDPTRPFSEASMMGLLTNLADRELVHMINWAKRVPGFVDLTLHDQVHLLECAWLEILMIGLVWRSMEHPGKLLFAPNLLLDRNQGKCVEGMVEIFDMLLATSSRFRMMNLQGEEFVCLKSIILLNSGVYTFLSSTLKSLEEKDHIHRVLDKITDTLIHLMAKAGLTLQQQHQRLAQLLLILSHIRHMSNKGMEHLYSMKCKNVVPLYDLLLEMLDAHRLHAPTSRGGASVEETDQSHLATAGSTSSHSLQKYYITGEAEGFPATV
UniProt Q03181, sequence (Q03181 whole entry, looked up): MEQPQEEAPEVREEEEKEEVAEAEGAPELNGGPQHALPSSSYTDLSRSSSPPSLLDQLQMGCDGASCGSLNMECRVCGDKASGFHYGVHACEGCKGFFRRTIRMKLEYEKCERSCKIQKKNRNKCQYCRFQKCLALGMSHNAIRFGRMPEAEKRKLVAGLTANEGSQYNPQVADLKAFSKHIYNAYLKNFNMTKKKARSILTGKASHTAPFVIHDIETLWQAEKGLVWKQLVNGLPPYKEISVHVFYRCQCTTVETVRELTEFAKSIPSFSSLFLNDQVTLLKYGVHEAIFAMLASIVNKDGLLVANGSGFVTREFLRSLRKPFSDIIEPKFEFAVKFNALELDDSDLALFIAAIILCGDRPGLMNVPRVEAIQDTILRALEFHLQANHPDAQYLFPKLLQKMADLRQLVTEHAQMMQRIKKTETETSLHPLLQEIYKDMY
UniProt O94782, sequence (O94782 whole entry, looked up): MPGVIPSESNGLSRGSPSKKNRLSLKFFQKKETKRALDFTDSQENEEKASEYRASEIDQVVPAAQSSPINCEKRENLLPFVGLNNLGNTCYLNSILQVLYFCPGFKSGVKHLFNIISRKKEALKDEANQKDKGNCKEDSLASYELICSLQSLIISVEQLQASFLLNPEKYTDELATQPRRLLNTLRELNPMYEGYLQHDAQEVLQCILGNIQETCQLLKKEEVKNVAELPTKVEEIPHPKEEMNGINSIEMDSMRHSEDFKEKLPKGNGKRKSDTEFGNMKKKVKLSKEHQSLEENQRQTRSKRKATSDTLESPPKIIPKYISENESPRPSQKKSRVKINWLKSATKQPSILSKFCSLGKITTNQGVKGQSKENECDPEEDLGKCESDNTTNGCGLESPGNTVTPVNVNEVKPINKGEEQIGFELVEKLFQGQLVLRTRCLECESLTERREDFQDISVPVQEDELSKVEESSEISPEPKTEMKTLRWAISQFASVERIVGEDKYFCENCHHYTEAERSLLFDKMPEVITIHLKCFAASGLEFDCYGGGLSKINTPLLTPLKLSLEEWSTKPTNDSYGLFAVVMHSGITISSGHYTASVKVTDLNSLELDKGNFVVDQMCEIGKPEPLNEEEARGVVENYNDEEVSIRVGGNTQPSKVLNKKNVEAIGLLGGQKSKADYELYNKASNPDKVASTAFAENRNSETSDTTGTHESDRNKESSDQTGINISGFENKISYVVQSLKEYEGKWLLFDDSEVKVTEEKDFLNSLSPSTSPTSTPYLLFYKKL

O=C(Nc1ccc(Br)cc1)c1cc(Br)cc(Br)c1O
Potency [1]: inconclusive: 56.2 µM [inhibitor, partial curve, poor fit]

O=c1oc2ccccc2c(O)c1Cc1c(O)c2ccccc2oc1=O
Potency [1]: inconclusive: 31.6 µM [inhibitor, partial curve]

Oc1cc[c]([Hg][Cl])cc1
Potency [1]: active: 50.1 µM

c1ccc2c(c1)Nc1ccccc1S2
Potency [1]: inconclusive: 8.91 µM [inhibitor, full curve, poor fit]
Potency [2]: inconclusive: 44.7 µM [activator, partial curve]
Potency [3]: inactive
activation [4, 11]: inconclusive: -15.7%
activation ([4]; at 76.7 µM (top of the series)): inactive: -2.43%
Potency [5]: active: 39.8 µM

C[C@H]1CC[C@@H]2[C@@H](C)[C@H]3[C@H](C[C@H]4[C@@H]5CC=C6CC(O[C@@H]7O[C@H](CO)[C@H](O)[C@H](O[C@@H]8O[C@H](CO)[C@@H](O)[C@H](O)[C@H]8O)[C@H]7O[C@H]7O[C@@H](C)[C@H](O)[C@@H](O)[C@H]7O)CC[C@]6(C)[C@H]5CC[C@]34C)N2C1 (some centres not stated)
Potency [1]: inconclusive: 56.2 µM [inhibitor, partial curve, poor fit]
Potency [6]: active: 22.4 µM [inconclusive]
activity change, negative = inhibition [3]: inconclusive: -73.8%
Potency [4, 11]: inconclusive: 44.7 µM [side channel, falling, partial curve]
Potency [5]: inactive

Clc1ccc(COC(Cn2ccnc2)c2ccc(Cl)cc2Cl)cc1 (configuration not stated)
Potency [1]: inconclusive: 56.2 µM [inhibitor, partial curve, poor fit] and inconclusive: 35.5 µM [inhibitor, partial curve]
Potency [2]: inactive
Potency [4, 11]: inconclusive: 39.8 µM [cytotoxic, side channel, partial curve]
Potency [5]: inconclusive: 20 µM [cytotoxic, side channel, partial curve, poor fit]

O=c1cccc2n1CC1CNC[C@H]2C1
Potency [1]: inconclusive: 39.8 µM [inhibitor, partial curve, poor fit]

O=[N+]([O-])c1ccc(O[C@@H]2O[C@H](CO)[C@@H](O)[C@H](O)[C@H]2F)c([N+](=O)[O-])c1
Potency [7]: inactive

CN1C(=O)CCS(=O)(=O)C1c1ccc(Cl)cc1 (configuration not stated)
Potency [8]: inactive

O=[N+]([O-])c1c2ccccc2cc2ccccc12
Potency [6]: inactive
Potency [2]: inconclusive: 39.8 µM [activator, partial curve, poor fit]
Potency [9]: inconclusive: 2 µM [side channel, falling, full curve, poor fit]
Potency [10]: inconclusive: 28.2 µM [inhibitor, partial curve, poor fit]
activation [4, 11]: inconclusive: 14.4%
Potency [5]: active: 31.6 µM
